About 31,000 (8.9%) of roughly 350,000 compounds were called active. Inconclusive results, whose numbers are uncertain, are shown with a selection of clear calls. The call rests on the fitted dose curve; in most records, active means well fitted inhibition curve with a large enough effect; inconclusive means small, poorly fitted or top-dose-only effect; inactive means no such curve, though single readings can be large or run the other way. A potency beside an inconclusive call is a rough fit, not a confirmed value.
Each molecule was assayed against Histone-lysine N-methyltransferase EHMT2 (Homo sapiens) (UniProt Q96KQ7) (assay: qHTS Assay for Inhibitors of Histone Lysine Methyltransferase G9a). Conditions: G9a H3K9 monomethylation, AlphaScreen, 2 h; activity, negative = inhibition: at 59 µM (top of the series) unless noted.
Sequence of UniProt Q96KQ7 (Q96KQ7 whole entry, looked up): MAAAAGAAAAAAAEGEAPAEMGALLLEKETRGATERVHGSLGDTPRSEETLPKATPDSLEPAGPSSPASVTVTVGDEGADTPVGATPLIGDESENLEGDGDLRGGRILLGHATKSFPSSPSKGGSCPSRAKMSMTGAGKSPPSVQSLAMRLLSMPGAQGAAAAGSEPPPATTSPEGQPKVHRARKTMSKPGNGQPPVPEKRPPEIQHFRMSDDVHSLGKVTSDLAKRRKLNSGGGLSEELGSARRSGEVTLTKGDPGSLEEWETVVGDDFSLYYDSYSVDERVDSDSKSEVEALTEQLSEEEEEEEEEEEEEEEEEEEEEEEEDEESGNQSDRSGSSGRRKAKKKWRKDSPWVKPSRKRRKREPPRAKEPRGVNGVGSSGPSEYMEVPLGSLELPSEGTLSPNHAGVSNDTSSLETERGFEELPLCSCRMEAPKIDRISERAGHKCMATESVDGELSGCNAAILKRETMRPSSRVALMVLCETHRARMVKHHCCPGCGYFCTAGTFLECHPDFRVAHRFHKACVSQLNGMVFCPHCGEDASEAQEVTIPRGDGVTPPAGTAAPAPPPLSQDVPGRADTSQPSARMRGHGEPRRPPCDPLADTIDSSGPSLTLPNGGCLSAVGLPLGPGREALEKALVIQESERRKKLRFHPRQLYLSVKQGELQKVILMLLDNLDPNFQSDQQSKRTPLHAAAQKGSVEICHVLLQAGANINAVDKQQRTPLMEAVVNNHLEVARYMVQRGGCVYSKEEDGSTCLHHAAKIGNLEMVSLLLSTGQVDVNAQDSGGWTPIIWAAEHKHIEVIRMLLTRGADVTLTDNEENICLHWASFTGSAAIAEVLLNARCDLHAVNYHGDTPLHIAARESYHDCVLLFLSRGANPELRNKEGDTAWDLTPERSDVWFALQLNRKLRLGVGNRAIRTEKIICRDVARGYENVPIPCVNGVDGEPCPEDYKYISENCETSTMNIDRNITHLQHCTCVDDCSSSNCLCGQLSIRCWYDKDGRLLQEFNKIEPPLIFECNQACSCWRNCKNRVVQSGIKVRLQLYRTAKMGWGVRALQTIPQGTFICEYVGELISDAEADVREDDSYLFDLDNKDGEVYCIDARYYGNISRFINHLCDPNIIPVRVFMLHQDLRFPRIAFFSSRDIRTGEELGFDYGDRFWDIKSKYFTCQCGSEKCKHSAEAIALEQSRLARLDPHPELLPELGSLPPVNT
Summary of the method: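 G9a (20 nM) was preincubated 15 min with compound, then reacted 2 h at room temperature with 500 nM biotin-H3K9 peptide and 20 µM SAM. Monomethyl-H3K9 detected by AlphaScreen using anti-H3K9me1 antibody.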
For `Cc1cc(C)nc(SCc2ccc(C(=O)N/N=C/c3ccccn3)cc2)n1`, the Potency was “inactive”.
With `COc1ccc(NC(=O)CSc2nc(-c3ccccc3)[nH]c2-c2ccccc2)cc1OC` the Potency was inconclusive: 39.8 µM [inhibitor, single point].
In the case of `CCN(CC)c1ccc(NC(=O)CN2CCN(S(=O)(=O)c3cc(Cl)ccc3OC)CC2)cc1`, the Potency is reported as active: 8.91 µM.
For `CC1(C)Cc2c(sc(NC(=O)Nc3ccccc3)c2C(N)=O)CO1`, the Potency was inconclusive: 89.1 µM [inhibitor, single point].
For `COc1ccc(C2c3ccc4ccccc4c3Oc3ncn(CCO)c(=N)c32)cc1` (stereo unspecified), the Potency was “inactive”.
For `COc1cc(CNCCCN2CCOCC2)cc(Br)c1OCc1ccc(Cl)cc1`, the Potency was inconclusive: 56.2 µM [inhibitor, partial curve, poor fit].
`Cc1ccc(Sc2ncccc2COC(=O)Nc2ccccc2)cc1` was tested, and the Potency was “inactive”.
With `C/C(=C1/SC(N2CCOCC2)=NC1=O)c1ccc(Cl)cc1` the Potency was inconclusive: 25.1 µM [inhibitor, single point].
`CCOc1cc(C2Nc3ccccc3C(=O)N2c2ccccc2)ccc1O` (stereo unspecified) was tested, and the Potency was “inactive”.
In the case of `Cc1sc2nc(COC(=O)c3ccc(N4CCCC(C)C4)c([N+](=O)[O-])c3)[nH]c(=O)c2c1C` (stereo unspecified), the Potency is reported as inconclusive: 20 µM [inhibitor, single point].
With `Cc1ccc(CC(=O)Nc2ccc(S(=O)(=O)N3CCOCC3)cc2)cc1C` the Potency was inconclusive: 3.16 µM [inhibitor, partial curve, poor fit].
For `Cc1cc(NC(=O)CSc2nc(CC(C)(C)C)nc3c2c(=O)n(C)c(=O)n3C)no1`, the Potency was inconclusive: 35.5 µM [inhibitor, single point].
In the case of `Cc1ccc(C(=O)c2ccc([N+](=O)[O-])cc2)c(C)c1`, the Potency is reported as inconclusive: 3.16 µM [inhibitor, single point].
With `CCOC(=O)CSc1nnc2c3ccccc3n(C)c2n1` the Potency was inconclusive: 10 µM [inhibitor, full curve, poor fit].
`CC(C(=O)NC(=O)NC1CCCCC1)N1CCN(C(c2ccccc2)c2ccccc2)CC1` (stereo unspecified) was tested, and the Potency was inconclusive: 25.1 µM [inhibitor, partial curve, poor fit].
In the case of `Brc1ccc2c(c1)C(c1cccs1)=NNC(c1cccnc1)=N2`, the Potency is reported as “inactive”.
With `COc1cc(/C=N\Nc2nc(-c3cccs3)c(NC(C)=O)s2)ccc1O` the Potency was active: 11.2 µM.
`Cc1ccc(OCC(=O)O/N=C(\N)Cc2ccc([N+](=O)[O-])cc2)cc1C` was tested, and the Potency was inconclusive: 89.1 µM [inhibitor, partial curve, poor fit].
In the case of `Cc1cc(C)n(-c2cccc(C(=O)O)c2)n1`, the Potency is reported as inconclusive: 14.1 µM [inhibitor, partial curve, poor fit].
`Cc1nnc(NC(=O)CN2C(=O)c3ccccc3S2(=O)=O)s1` was tested, and the Potency was active: 50.1 µM.
`CC12CN(Cc3ccccc3)CC(C)(CN(Cc3ccccc3)C1)C2=NO` was tested, and the Potency was inconclusive: 89.1 µM [inhibitor, single point].
In the case of `CC1CCc2cc(F)cc3c(O)c(C(=O)NCCN(C)C)c(=O)n1c23` (stereo unspecified), the Potency is reported as inconclusive: 89.1 µM [inhibitor, single point].
With `CCc1c(C)sc(NC(=O)c2cnn3cccnc23)c1C#N` the Potency was inconclusive: 35.5 µM [inhibitor, single point].
`COc1cc(C(=O)Nc2ccc(N3CCCS3(=O)=O)cc2)c([N+](=O)[O-])cc1OC` was tested, and the activity, negative = inhibition was inactive: 23.4% [at 2.33 µM].
With `O=C(Nc1ccccc1N1CCOCC1)c1cccs1` the Potency was inconclusive: 20 µM [inhibitor, single point].
In the case of `Cc1ccc(NC(=S)N2CCCCC2)cc1C`, the Potency is reported as “inactive”.
In the case of `CCOC(=O)c1c(C)oc2ncnc(N3CCN(c4ccccc4)CC3)c12`, the Potency is reported as “inactive”.
`CC(C)c1nnc(NC(=O)C2CCCCC2)s1` was tested, and the Potency was “inactive”.
In the case of `O=C(c1c[nH]c(C(=O)N2CCN(c3ccccc3F)CC2)c1)c1cccc(Cl)c1Cl`, the Potency is reported as inconclusive: 0.891 µM [inhibitor, partial curve].
With `CN(C)c1ccc(NC(N)=S)cc1` the Potency was active: 10 µM.
For `CCOC(=O)c1ccc(OCC(=O)c2ccc(O)cc2O)cc1`, the Potency was “inactive”.
With `C#CCOCCOCCOCCNc1nc(N2CCOCC2)nc(N2CCN(C(=O)[C@H](CCCCN)n3cc([C@@H](N)CC(C)C)nn3)CC2)n1` the activity, negative = inhibition was inconclusive: -81.3% [inhibitor].
In the case of `COc1ccc(CN=C2NN=C(c3ccccc3)CS2)cc1`, the Potency is reported as active: 35.5 µM.
`CCCn1c(N)c(C(=O)CN(C)CC(=O)Nc2cc(C)ccc2C)c(=O)[nH]c1=O` was tested, and the Potency was active: 50.1 µM.
In the case of `COc1ccc(/C=N/NC(=O)c2cccc(S(=O)(=O)N3CCCC3)c2)cc1O`, the activity, negative = inhibition is reported as inactive: 23.3% [at 12.7 µM].
For `Cc1cc2nn(-c3ccc(F)cc3)nc2cc1N`, the Potency was active: 1 µM.
For `Cc1ccc(-c2cc3c(n2-c2ccc(F)cc2)CC(C)(C)CC3=O)cc1`, the Potency was “inactive”.
With `CC(C)(C)c1ccc(C2=CSC3=NCCN23)cc1` the Potency was inconclusive: 89.1 µM [inhibitor, single point].
With `Cc1ccc(NC(=O)CCN2C(=O)C3CCCCC3C2=O)c(O)c1` (stereo unspecified) the Potency was inconclusive: 89.1 µM [inhibitor, partial curve, poor fit].
`Cc1ccc(C(=O)C(C)OC(=O)Cc2c[nH]c3ccccc23)cc1` (stereo unspecified) was tested, and the Potency was inconclusive: 89.1 µM [inhibitor, single point].
`O=C(c1cc(-c2cccc(O)c2)on1)N1CCN(C(c2ccccc2)c2ccccc2)CC1` was tested, and the Potency was active: 44.7 µM.
With `COc1ccc(C2C3=C(Nc4ncnn42)c2ccccc2CC3)cc1OC` (stereo unspecified) the Potency was inconclusive: 50.1 µM [inhibitor, partial curve, poor fit].
For `COc1ccccc1-c1nc(S(=O)(=O)c2ccccc2)c(N2CCC(C)CC2)o1`, the Potency was inconclusive: 39.8 µM [inhibitor, partial curve, poor fit].
For `C#Cc1ccc([C@@H]2C=C(C(=O)O)O[C@H](OCCCCO)C2)cc1`, the activity, negative = inhibition was inconclusive: -100% [inhibitor].
`CN(C)S(=O)(=O)c1ccc(C(=O)Nc2ccccc2C(=O)O)cc1` was tested, and the Potency was inconclusive: 25.1 µM [inhibitor, single point].
For `Cc1ccnc(SCC(=O)N2CCc3ccccc3C2)n1`, the Potency was active: 39.8 µM.

From PubChem BioAssay AID504332 (National Center for Advancing Translational Sciences (NCATS), 2011)
Further: nearly all actives have a fitted effect of over 75% in size.
On the % scale 0 is the no-effect control and ±100 the full control effect; potency means the concentration at half of the fitted maximal effect; tags describe the fitted curve by direction and shape.
